Measured values taken from PubChem BioAssay AID624296 (National Center for Advancing Translational Sciences (NCATS), 2012).
About 9,900 (2.8%) of roughly 350,000 compounds were called active. Inconclusive means that the source gave no clear call. Such entries were picked first, then a sample of the others. The call rests on the fitted dose curve; in most records, active means well fitted activation curve with a large enough effect; inconclusive means small, poorly fitted or top-dose-only effect; inactive means no such curve, though single readings can be large or run the other way. Potencies of inconclusive entries are left out as doubtful fits.

assay: A quantitative high throughput screen for small molecules that induce DNA re-replication in MCF 10a normal breast cells.; further: nearly all actives have a fitted effect of over 50% in size; on activity, positive = re-replication: % of control where 0% means no effect; conditions: MCF 10A DNA re-replication, Hoechst nuclear intensity, 48 h; activity, positive = re-replication: at 46.1 µM (top of the series)
Potency means the concentration at half of the fitted maximal effect; tags describe the fitted curve by direction and shape.

| SMILES | activity, positive = re-replication | Potency |
| --- | --- | --- |
| Nc1nc(SCc2ccccc2)c2[nH]cnc2n1 | inactive: 1.41% | – |
| OC(COc1ccc2cc(Br)ccc2c1)CN1CCOCC1 (stereo unspecified) | – | inconclusive [activator, single point] |
| O=C(COC(=O)c1cc(Cl)cc(Cl)c1)NCc1ccco1 | inactive: 5.12% | – |
| O=C(Cc1cccs1)Nc1cccc(-c2nc3ccccc3o2)c1 | – | inconclusive [activator, partial curve, poor fit] |
| O=C(O)CCc1nc(-c2ccccc2)c(-c2ccccc2)o1 | inactive: -6.01% | – |
| CC(C)C(NS(=O)(=O)c1ccccc1)C(=O)N1CCCCCC1 (stereo unspecified) | – | inconclusive [activator, single point] |
| COc1ccc(N(CC(=O)N/N=C/c2ccc(-c3ccc([N+](=O)[O-])cc3)o2)S(=O)(=O)c2ccc(C)cc2)cc1 | – | inconclusive [activator, full curve, poor fit] |
| O=C(Cn1cnc2c(NCc3ccccc3)ncnc21)NCCc1cc2ccccc2[nH]1 | – | inconclusive [activator, full curve, poor fit] |
| CCn1ccnc1C(O)c1ccccc1OC (stereo unspecified) | – | active: 13 µM |
| NC1(C#Cc2ccc3c(=O)c4ccccc4sc3c2)CCCCC1 | – | inconclusive [activator, single point] |
| O=C(COc1ccc(Cl)cc1)NCCC1=CCCCC1 | – | inconclusive [activator, partial curve] |
| CC(C)CC(c1nnnn1CC1CCCO1)N1CCN(c2cccc(Cl)c2)CC1 (stereo unspecified) | – | inconclusive [activator, single point] |
| Cc1ccc(N(Cc2ccc([N+](=O)[O-])cc2)C(=O)c2ccco2)cc1C | inactive: -1.8% | – |
| CCC(=O)Nc1cccc(C(=O)OCC(=O)c2ccccc2Cl)c1 | – | inconclusive [activator, partial curve, poor fit] |
| O=C1c2ccccc2C(=O)N1CC(O)COc1ccc(Br)cc1 (stereo unspecified) | inactive: -1.16% | – |
| COc1ccc(NC(=O)CC2CCCCC2)cc1OC | – | active: 5.8 µM |
| Cc1c(C(=O)NNC(=O)c2ccncc2)oc2ccc(Br)cc12 | inactive: -0.736% | – |
| CN(c1ccc(OCC(=O)Nc2cc(Cl)ccc2C(=O)O)cc1)S(=O)(=O)c1ccc(F)cc1 | – | inconclusive [activator, partial curve, poor fit] |
| O=C(c1ccccc1)N1CCC(CC2CC(c3cccc(Br)c3)=NO2)(C(=O)NCC2CCCCC2)CC1 (stereo unspecified) | – | inconclusive [activator, single point] |
| COc1ccc(-c2cn(-c3ccc(Cl)cc3)c3[n+]2CCCCC3)cc1 | – | inconclusive [activator, partial curve, poor fit] |
| CC(=O)N1CCCc2cc(S(=O)(=O)N(C)CCC#N)ccc21 | – | inconclusive [activator, partial curve, poor fit] |
| CCCCNC(=O)Cn1c(=O)n(C)c2ccccc21 | – | inconclusive [activator, single point] |
| CCOc1ccc(S(=O)(=O)N2CCN=C2c2ccccc2)cc1 | – | active: 20.6 µM |
| CC1(C)C=Cc2c(c3c(c4c(=O)c(-c5ccc(O)cc5)coc24)OC(C)(C)CC3)O1 | – | inconclusive [activator, single point] |

| SMILES | activity, positive = re-replication | Potency |
| --- | --- | --- |
| O=C(CN1C(=O)S/C(=C\c2ccc(Cl)cc2)C1=O)NCCCn1ccnc1 | – | inconclusive [activator, partial curve] |
| CCC(C(=O)OCC(=O)C1(O)CCC2C3CCC4=CC(=O)CCC4(C)C3C(O)CC21C)C(C)C (stereo unspecified) | – | inconclusive [activator, single point] |
| Cc1onc(-c2c(Cl)cccc2Cl)c1C(=O)OCC(=O)c1ccccc1 | inactive: 17.4% | – |
| Cc1ccc(S(=O)(=O)Nc2cc(=O)[nH]c(SCc3ccccc3Cl)n2)cc1 | – | inconclusive [activator, single point] |
| COc1ccc(NC(=O)Cc2ccc(Cl)cc2)cc1NC(=O)c1ccco1 | inactive: 10.9% | – |
| Cc1cc2[nH]c(=O)c(=O)[nH]c2cc1S(=O)(=O)N1CCN(c2cccc(C(F)(F)F)c2)CC1 | – | active: 16.4 µM |
| CCOc1cc(/C=N/NC(=O)CN2CCOCC2)ccc1OCc1ccccc1 | inactive: -10% | – |
| CCc1ccc(CN2CCC(Oc3ccc(C(=O)N4CCCC4)cc3)CC2)cc1 | – | inconclusive [activator, single point] |
| COc1ccc(C(=O)Oc2ccc(C(C)=O)cc2)c(OC)c1 | inactive: 0.971% | – |
| COc1ccc(S[C@@H](CCN2CC[C@H](O)CCC2=O)c2ccccc2)cc1 | inactive: 22.8% | – |
| O=C(c1cccc(F)c1)N1CCc2ccccc21 | – | active: 0.184 µM |
| C/C(=N\Nc1ccccc1C)c1cccnc1 | inactive: -3.83% | – |
| COc1cccc(OC)c1OCCN1CCN(C(c2ccccc2)c2ccccc2)CC1 | – | inconclusive [activator, partial curve, poor fit] |
| O=C(O)C(=O)/C(=C\c1ccc([N+](=O)[O-])cc1)c1ccc2ccccc2n1 | – | inconclusive [activator, single point] |
| CSc1ccccc1NC(=O)Nc1ccc(Cl)cc1 | – | inconclusive [activator, full curve, poor fit] |
| CN(C)c1ccc(/C=C/c2nc3ccccc3s2)cc1 | – | inconclusive [activator, single point] |
| CCOC(=O)c1c(-c2ccccc2)oc2cc(Br)c(O)cc12 | – | active: 16.4 µM |
| CCn1c(/C=C/c2ccccc2Cl)nc2ccccc2c1=O | – | active: 16.4 µM |
| Cc1nnc(NC(=O)CSc2n[nH]c(-c3ccccc3)n2)s1 | – | inconclusive [activator, partial curve, poor fit] |
| c1csc(Cc2nn3c(-c4n[nH]c5c4CCC5)nnc3s2)c1 | – | inconclusive [activator, partial curve] |
| CCn1c(CNc2ccccc2Cl)nnc1SCCN1CCCCC1 | inactive: -0.542% | – |
| N#C/C(=C\c1ccc(F)c(F)c1)C(=O)NC1CCCCC1 | – | inconclusive [activator, single point] |
| COc1cc2[nH]c(=O)n(CCCCCC(=O)N3CCN(c4ccccn4)CC3)c(=O)c2cc1OC | – | inconclusive [activator, partial curve, poor fit] |
| O=C(CCCN1C(=O)/C(=C/c2cccs2)SC1=S)Nc1ccccc1O | – | inconclusive [activator, full curve, poor fit] |

| SMILES | activity, positive = re-replication | Potency |
| --- | --- | --- |
| Cn1c(=O)cc(SCC(=O)N2CCN(c3ccccn3)CC2)c2ccccc21 | – | inconclusive [activator, partial curve, poor fit] |
| COc1ccc(CN2CCN(C3CCSCC3)CC2CCO)c(C)c1C (stereo unspecified) | – | inconclusive [activator, partial curve, poor fit] |
| CC(C)(C)/C(COc1ccccc1[N+](=O)[O-])=N/O | – | inconclusive [activator, partial curve] |
| COc1ccc(/C(O)=C2/C(=O)C(=O)N(CCCN3CCOCC3)C2c2ccc(N(C)C)cc2)cc1 (stereo unspecified) | inactive: 1.5% | – |
| O=C1c2ccccc2C(=O)C1c1ccccc1 | – | inconclusive [activator, partial curve, poor fit] |
| COc1ccccc1S(=O)(=O)Nc1cc(C)nn1-c1ccc(C)cc1 | inactive: -4.64% | – |
| ON=C1c2ccccc2-c2cc(Br)ccc21 | – | inconclusive [activator, single point] |
| COc1ccc(NC(=O)CN(C)C(=O)c2cc(-c3ccc(C)o3)nc3ccccc23)cc1 | – | inconclusive [activator, partial curve, poor fit] |
| CN(C(=O)CSc1ccccc1C(=O)O)C1CCCCC1 | – | inconclusive [activator, single point] |
| OCCN1CC(O)C(O)C(O)C1CO (stereo unspecified) | inactive: 4.27% | – |
| CCC(C(=O)OCC(=O)N1CCN(S(=O)(=O)c2ccc(C)cc2C)CC1)c1ccccc1 (stereo unspecified) | inactive: -1.93% | – |
| CCn1c(NCc2cc(Cl)ccc2O)nc2ccccc21 | – | inconclusive [activator, single point] |
| CNc1nc(Sc2ccc(C)cc2)cc(C(F)(F)F)n1 | – | inconclusive [activator, single point] |
| COc1cc2c(cc1OC)-c1cc(OCCN3CCOCC3)nc(=O)n1CC2 | inactive: 1.06% | – |
| CCOC(=O)C1=C(N)Oc2cc(O)ccc2C1c1ccc(F)cc1F (stereo unspecified) | – | inconclusive [activator, single point] |
| CCCNC(=S)N1CCN(C)CC1 | inactive: -1.59% | – |
| O=c1cc(C(F)(F)F)[nH]c2ccc(C(F)(F)F)cc12 | – | inconclusive [activator, full curve, poor fit] |
| Cc1c(C(=O)N2CCCCC2C)sc2nc3n(c(=O)c12)CCC3 (stereo unspecified) | inactive: 3.73% | – |
| CC1CN(CCCOc2ccccc2-c2ccccc2)CC(C)O1 (stereo unspecified) | – | inconclusive [activator, partial curve, poor fit] |
| COc1ccc(NC(=O)c2ccc(S(=O)(=O)N3CCOCC3)o2)cc1 | – | inconclusive [activator, partial curve, poor fit] |
| COc1ccc(C(=O)C[n+]2cccc(C)c2C)cc1[N+](=O)[O-] | inactive: -2.43% | – |
| NS(=O)(=O)c1ccc(N2N=C(c3ccccc3)CC2c2cccc(Cl)c2)cc1 (stereo unspecified) | – | inconclusive [activator, full curve, poor fit] |
| CC1(C2CCC3C4CCC5CC6(CCC5(C)C4C(=O)CC32C)OCCO6)OCCO1 (stereo unspecified) | – | inconclusive [activator, single point] |
